The values that follow come from patent US20260265359A1 (Hoffmann-La Roche, published 2026).

Test [1] has as its target T1, recombinant human PIGF (human, UniProt P49763-2 19-149, limits assumed).
T1 construct: also called PlGF; placental growth factor
T1 sequence (looked up): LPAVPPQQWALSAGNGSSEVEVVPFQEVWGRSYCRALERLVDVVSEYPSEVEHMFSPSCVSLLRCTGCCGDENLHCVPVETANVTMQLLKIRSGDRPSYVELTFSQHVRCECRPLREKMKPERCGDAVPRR
The test is described as follows: ELISA on plate-coated recombinant human PIGF; anti-human IgG1-Fc-HRP, OD450. Here is the method: (§1) After non-specific blocking using 1% BSA at 25° C. for 1 hour, a series of dilutions of test antibodies (“Abs”) were added into the coated wells and incubated at 25° C. for 1 hour. The bound Abs were detected using a secondary Ab (goat anti-human IgG1-Fc) conjugated with HRP followed by OD₄₅₀ reading.
On the technique in general: ELISA stands for enzyme-linked immunosorbent assay.

Test [2] deals with T2, recombinant human VEGF-A165 (human, UniProt P15692-4 27-191).
T2 sequence (looked up): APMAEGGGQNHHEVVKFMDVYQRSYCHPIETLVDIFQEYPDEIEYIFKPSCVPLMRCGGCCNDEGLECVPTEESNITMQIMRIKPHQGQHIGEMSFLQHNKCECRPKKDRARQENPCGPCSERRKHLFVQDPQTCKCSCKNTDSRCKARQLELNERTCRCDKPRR
The test is described as follows: ELISA on plate-coated recombinant human VEGF-A165; anti-human IgG1-Fc-HRP, OD450. As for the experimental part: as §1

The target of test [3] is T3, recombinant human IL-6R (human, UniProt P08887 20-365, limits assumed).
T3 construct: Recombinant protein used in ELISA and as SPR analyte; also called hIL-6R
T3 sequence (looked up): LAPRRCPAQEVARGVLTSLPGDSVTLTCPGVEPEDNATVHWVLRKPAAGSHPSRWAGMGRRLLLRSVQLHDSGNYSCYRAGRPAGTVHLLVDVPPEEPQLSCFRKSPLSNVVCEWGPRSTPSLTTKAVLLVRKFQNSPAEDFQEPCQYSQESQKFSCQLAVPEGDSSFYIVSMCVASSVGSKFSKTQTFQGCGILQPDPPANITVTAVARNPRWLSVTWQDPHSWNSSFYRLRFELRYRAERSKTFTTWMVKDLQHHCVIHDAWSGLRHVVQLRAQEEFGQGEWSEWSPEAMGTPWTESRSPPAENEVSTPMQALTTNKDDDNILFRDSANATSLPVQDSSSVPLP
The test is described as follows: SPR Biacore, 25 C; test antibody captured by anti-human IgG (Fc) on CM5 chip, target protein as analyte; 1:1 model. Here is the method:
(§2) SPR Biacore assay was performed at 25° C. with HBS-EP+ as a running buffer. The assay was performed by immobilization of the anti-human IgG (Fc) antibody onto the CM5 sensor chip surface and determined the level of ligand immobilization. […] Test antibodies were injected over the surface of Series S Sensor Chip CM5 as Capture. The analytes (target proteins) were diluted with running buffer into different concentrations and injected over the sensor surface as the association phase for affinity and kinetics measurements. The 1:1 binding model was used to measure the binding affinity and/or kinetics.
(Surface plasmon resonance follows binding to a sensor surface in real time, without labels.)

The target of test [4] is T1, recombinant human PIGF. The test is described as above. As for the experimental part: as §2
Test [5] concerns the target T4, recombinant human VEGF-B167 (human, UniProt P49765-2 22-188).
T4 sequence (looked up): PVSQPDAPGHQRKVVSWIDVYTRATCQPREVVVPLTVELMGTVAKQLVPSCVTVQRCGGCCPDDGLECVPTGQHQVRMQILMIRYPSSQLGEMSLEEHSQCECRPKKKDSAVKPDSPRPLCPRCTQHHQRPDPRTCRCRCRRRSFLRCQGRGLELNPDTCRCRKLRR
The description is as above. Here is the method:
as §2

Test [6] concerns the target T5, recombinant human Ang-2 (human, UniProt O15123 19-496, limits assumed).
T5 construct: also called Angiopoietin-2; hAng-2
T5 sequence (looked up): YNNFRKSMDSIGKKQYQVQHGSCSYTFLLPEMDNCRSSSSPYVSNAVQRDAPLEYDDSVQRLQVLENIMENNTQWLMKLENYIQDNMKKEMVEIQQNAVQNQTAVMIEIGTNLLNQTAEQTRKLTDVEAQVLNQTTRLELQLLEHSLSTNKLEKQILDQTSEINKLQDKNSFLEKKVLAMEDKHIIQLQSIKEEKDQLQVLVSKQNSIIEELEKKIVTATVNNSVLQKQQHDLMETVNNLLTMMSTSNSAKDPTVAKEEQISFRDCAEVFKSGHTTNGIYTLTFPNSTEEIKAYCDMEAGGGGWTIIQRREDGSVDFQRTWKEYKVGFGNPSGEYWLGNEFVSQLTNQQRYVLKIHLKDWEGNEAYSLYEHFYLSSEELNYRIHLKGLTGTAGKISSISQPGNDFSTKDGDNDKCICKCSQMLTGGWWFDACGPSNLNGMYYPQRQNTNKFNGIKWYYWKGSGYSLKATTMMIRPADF
The test is described as above. As for the experimental part: as §2

The target of test [7] is T2, recombinant human VEGF-A165. The test is described as above. Here is the method:
as §2

Test [8] deals with T5, recombinant human Ang-2. The test is described as follows: ELISA on plate-coated recombinant human Ang-2; anti-human IgG1-Fc-HRP, OD450. As for the experimental part:
as §1

Test [9] has as its target T2, recombinant human VEGF-A165. As to the kind of experiment: cell-based or functional assay.
Test [10] deals with T3, recombinant human IL-6R. As to the kind of experiment: ELISA on plate-coated recombinant human IL-6R; anti-human IgG1-Fc-HRP, OD450. Here is the method: as §1
The same ELISA procedure was performed with recombinant human IL-6R. […] Vobarilizumab is a single domain antibody against IL-6R. B781402 and B781405 are bispecific fusion antibodies that inhibit VEGF-A, B, PIGF and IL-6R.

B1: EB-105BI-7CA (other)
heavy: QVQLQESGPGLVRPSQTLSLTCTVSGYSITSDHAWSWVRQPPGRGLEWIGYISYSGITTYNPSLKSRVTMLRDTSKNQFSLRLSSVTAADTAVYYCARSLARTTAMDYWGQGSLVTVSSASTKGPSVFPLAPSSKSTSGGTAALGCLVKDYFPEPVTVSWNSGALTSGVHTFPAVLQSSGLYSLSSVVTVPSSSLGTQTYICNVNHKPSNTKVDKKV[human IgG1 Fc skipped]GGSGGGGSGGGGSAQTNFMPMDDLEQRLYEQFILQQGLE
light: SDTGRPFVEMYSEIPEIIHMTEGRELVIPCRVTSPNITVTLKKFPLDTLIPDGKRIIWDSRKGFIISNATYKEIGLLTCEATVNGHLYKTNYLTHRQTNTIIDVVLSPSHGIELSVGEKLVLNCTARTELNVGIDFNWEYPSSKHQHKKLVNRDLKTQSGSEMKKFLSTLTIDGVTRSDQGLYTCAASSGLMTKKNSTFVRVHEKDIQMTQSPSSLSASVGDRVTITCRASQDISSYLNWYQQKPGKAPKLLIYYTSRLHSGVPSRFSGSGSGTDFTFTISSLQPEDIATYYCQQGNTLPYTFGQGTKVEIKRTVAAPSVFIFPPSDEQLKSGTASVVCLLNNFYPREAKVQWKVDNALQSGNSQESVTEQDSKDSTYSLSSTLTLSKADYEKHKVYACEVTHQGLSSPVTKSFNRGEC
notes: VEGFR-1-D2-VEGFR-2-D3 at the N-terminus of the tocilizumab light chain; Made in CHO cells; also called B21138001
As a reminder, the EC50 is the midpoint of the concentration-response curve. What is called Kd is the constant that tells how readily two partners part at equilibrium. Usually koff stands for a measure of how fast the partners let go of each other. As usually defined, the kon is a measure of how fast the partners come together. Take B1: the EC50 in the test with recombinant human PIGF [1] is 0.04 nM; in test [2] it was 0.057 nM; with recombinant human Ang-2 [8], 0.32 nM; in the test with recombinant human IL-6R [10], 0.131 nM. Besides, the Kd was 0.551 nM in the test with recombinant human IL-6R [3]; 0.42 nM in the test with recombinant human PIGF [4]; 1.05 nM in test [5]; 0.307 nM in the test with recombinant human Ang-2 [6]; 0.0132 nM in [7]. The koff with recombinant human IL-6R [3] amounted to 0.000776 s⁻¹; in the test with recombinant human PIGF [4] it was 0.00841 s⁻¹; in test [5] it was 0.000441 s⁻¹; with recombinant human Ang-2 [6], 0.000366 s⁻¹; in [7], 0.000424 s⁻¹. For the same molecule, the kon in the test with recombinant human IL-6R [3] was found to be 1.41e+06 M⁻¹ s⁻¹; in the test with recombinant human PIGF [4], 2e+07 M⁻¹ s⁻¹; in [5], 421000 M⁻¹ s⁻¹; with recombinant human Ang-2 [6] it was 1.19e+06 M⁻¹ s⁻¹; in [7], 3.22e+07 M⁻¹ s⁻¹. Further, the “IC50, inhibition of VEGF-A165-stimulated VEGFR-2 NF-AT luciferase reporter (HEK-293), luminescence” value in [9] is 0.566 nM.

B2: EB-105BI-7CB (other)
heavy: QVQLQESGPGLVRPSQTLSLTCTVSGYSITSDHAWSWVRQPPGRGLEWIGYISYSGITTYNPSLKSRVTMLRDTSKNQFSLRLSSVTAADTAVYYCARSLARTTAMDYWGQGSLVTVSSASTKGPSVFPLAPSSKSTSGGTAALGCLVKDYFPEPVTVSWNSGALTSGVHTFPAVLQSSGLYSLSSVVTVPSSSLGTQTYICNVNHKPSNTKVDKKV[human IgG1 Fc skipped]GGSGGGGSAQTNFMPMDDLEQRLYEQFILQQGLE
light: SDTGRPFVEMYSEIPEIIHMTEGRELVIPCRVTSPNITVTLKKFPLDTLIPDGKRIIWDSRKGFIISNATYKEIGLLTCEATVNGHLYKTNYLTHRQTNTIIDVVLSPSHGIELSVGEKLVLNCTARTELNVGIDFNWEYPSSKHQHKKLVNRDLKTQSGSEMKKFLSTLTIDGVTRSDQGLYTCAASSGLMTKKNSTFVRVHEKDIQMTQSPSSLSASVGDRVTITCRASQDISSYLNWYQQKPGKAPKLLIYYTSRLHSGVPSRFSGSGSGTDFTFTISSLQPEDIATYYCQQGNTLPYTFGQGTKVEIKRTVAAPSVFIFPPSDEQLKSGTASVVCLLNNFYPREAKVQWKVDNALQSGNSQESVTEQDSKDSTYSLSSTLTLSKADYEKHKVYACEVTHQGLSSPVTKSFNRGEC
notes: Trispecific antibody fusion protein, first embodiment; lead molecule; also called B21138002
Regarding B2, the EC50 with recombinant human PIGF [1] was found to be 0.034 nM; in test [2], 0.066 nM; with recombinant human Ang-2 [8], 0.189 nM; with recombinant human IL-6R [10] it was 0.113 nM. The Kd came to 0.474 nM in the test with recombinant human IL-6R [3]; 0.4 nM with recombinant human PIGF [4]; 0.938 nM in test [5]; 0.323 nM in the test with recombinant human Ang-2 [6]; 0.025 nM in [7]. Besides, the koff with recombinant human IL-6R [3] was determined as 0.000698 s⁻¹; with recombinant human PIGF [4], 0.00631 s⁻¹; in test [5], 0.000542 s⁻¹; with recombinant human Ang-2 [6], 0.000284 s⁻¹; in [7], 0.000679 s⁻¹. Further, the kon was 1.47e+06 M⁻¹ s⁻¹ with recombinant human IL-6R [3]; 1.58e+07 M⁻¹ s⁻¹ with recombinant human PIGF [4]; 578000 M⁻¹ s⁻¹ in [5]; 878000 M⁻¹ s⁻¹ with recombinant human Ang-2 [6]; 2.71e+07 M⁻¹ s⁻¹ in [7]. Moreover, the “IC50, inhibition of VEGF-A165-stimulated VEGFR-2 NF-AT luciferase reporter (HEK-293), luminescence” value in test [9] was found to be 0.532 nM.
